The values below come from the supplement of paper PMC10369915.

Holding throughout (assay): enrichment score (SH2-bound / input frequency) (ratio); bacterial display of known human phosphotyrosine sites (pTyr-Var adds point mutants) read by sequencing; higher = stronger binding; tyrosines were phosphorylated by kinases first
Conditions in all cases: peptide library: pTyr-Var

The target in assay [1] is SHP2 C-SH2 domain E139D.
For assay [2], the target named is SHP2 C-SH2 domain wild-type.
In assay [3] the target is SHP2 N-SH2 domain L43F.
Assay [4] concerns the target SHP2 N-SH2 domain T42A.
Assay [5] deals with SHP2 N-SH2 domain T52S.
Assay [6] addresses SHP2 N-SH2 domain wild-type.

The other results are listed elsewhere or left out. No stated cut-off is given here; in the data, active = 3.2 or more and inactive = the rest. Most of these values are background signal.
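Further: displayed peptides selected on beads carrying the immobilized SH2 domain, with library peptides lacking any tyrosine serving as negative controls.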

B1: FAM221A_Y20 (peptide)
chain: DEYLEYRRIVG
B1: the enrichment score is inactive: 0.671 in assay [1]; inactive: 0.573 in assay [2]; inactive: 0.7 in assay [3]; inactive: 0.57 in assay [4]; inactive: 0.694 in assay [5]; inactive: 0.784 in assay [6].

B2: FAM171B_Y522_R524S (peptide)
chain: GNEEAYGSSHI
With B2, the enrichment score in assay [1] is inactive: 0.415; in assay [2] it was inactive: 0.335; in assay [3] it was inactive: 0.511; in assay [4], inactive: 0.441; in assay [5] it was inactive: 0.395; in assay [6] it was inactive: 0.523.

B3: FAM92A_Y226_YF (peptide)
chain: FRNSLYAPDFS
As to B3, the enrichment score in assay [1] is inactive: 1.3; in assay [2] it was inactive: 0.98; in assay [3], inactive: 0.84; in assay [4], inactive: 1.06; in assay [5] it was inactive: 1.14; in assay [6], inactive: 1.04.

B4: FAM81A_Y24 (peptide)
chain: LTMAPYSSVSL
Regarding B4, the enrichment score in assay [1] is inactive: 0.873; in assay [2], inactive: 1.5; in assay [3], inactive: 1.08; in assay [4], inactive: 2; in assay [5] it was inactive: 1.01; in assay [6] it was inactive: 0.74.

B5: FAM83B_Y639_YF (peptide)
chain: SNNFIYKTLGV
In the case of B5, the enrichment score in assay [1] is inactive: 0.719; in assay [2], inactive: 0.638; in assay [3], inactive: 0.737; in assay [4] it was inactive: 0.686; in assay [5], inactive: 0.574; in assay [6] it was inactive: 0.788.

B6: FAM83B_Y637 (peptide)
chain: TESNNYIYKTL
Turning to B6, the enrichment score in assay [1] was inactive: 0.648; in assay [2], inactive: 1.03; in assay [3], inactive: 0.468; in assay [4] it was inactive: 0.534; in assay [5], inactive: 0.475; in assay [6] it was inactive: 0.452.

B7: FAM189B_Y361 (peptide)
chain: VRSVDYVLFRS
On to B7, for which the enrichment score in assay [1] is inactive: 0.827; in assay [2], inactive: 0.889; in assay [3] it was inactive: 0.863; in assay [4], inactive: 0.92; in assay [5], inactive: 0.827; in assay [6], inactive: 0.824.

B8: FANCA_Y488_H492R (peptide)
chain: FESPRYLQVRI
Take B8: the enrichment score in assay [1] is inactive: 1.12; in assay [2] it was inactive: 1.05; in assay [3], inactive: 2.43; in assay [4], active: 4.91; in assay [5], inactive: 2.88; in assay [6] it was inactive: 1.03.

B9: FAM83B_Y639_K640T_YF (peptide)
chain: SNNFIYTTLGV
Take B9: the enrichment score was inactive: 1.03 in assay [1]; inactive: 0.854 in assay [2]; inactive: 0.835 in assay [3]; inactive: 1.05 in assay [4]; inactive: 0.834 in assay [5]; inactive: 0.744 in assay [6].

B10: FAM120A_Y327_YF (peptide)
chain: KRAIGYFSATS
B10: the enrichment score was inactive: 0.822 in assay [1]; inactive: 0.909 in assay [2]; inactive: 0.635 in assay [3]; inactive: 0.683 in assay [4]; inactive: 0.833 in assay [5]; inactive: 0.994 in assay [6].

B11: F8_Y450_F455C (peptide)
chain: VRFMAYTDETC
For the molecule B11, the enrichment score is inactive: 1.06 in assay [1]; inactive: 0.938 in assay [2]; inactive: 0.836 in assay [3]; inactive: 0.898 in assay [4]; inactive: 0.993 in assay [5]; inactive: 1.31 in assay [6].

B12: FAM83C_Y600_Y600H (peptide)
chain: DLLMQHPKAQG
In the case of B12, the enrichment score in assay [1] was inactive: 0.874; in assay [2], inactive: 0.721; in assay [3], inactive: 0.81; in assay [4], inactive: 0.623; in assay [5] it was inactive: 0.825; in assay [6], inactive: 0.718.

B13: F8_Y442_R437W (peptide)
chain: WIGRKYKKVRF
B13: the enrichment score in assay [1] is inactive: 0.325; in assay [2], inactive: 0.263; in assay [3], inactive: 0.328; in assay [4], inactive: 0.285; in assay [5] it was inactive: 0.234; in assay [6], inactive: 0.326.

B14: FAM221A_Y17_Y20H (peptide)
chain: AAVDEYLEHRR
As for B14, the enrichment score in assay [1] is inactive: 0.688; in assay [2], inactive: 0.745; in assay [3], inactive: 0.764; in assay [4], inactive: 0.646; in assay [5], inactive: 0.688; in assay [6] it was inactive: 0.94.

B15: FANCA_Y488 (peptide)
chain: FESPRYLQVHI
With B15, the enrichment score in assay [1] was inactive: 1.19; in assay [2], inactive: 1.3; in assay [3] it was inactive: 2.83; in assay [4] it was active: 5.86; in assay [5], inactive: 3.09; in assay [6], inactive: 1.71.

B16: FARSB_Y72 (peptide)
chain: VPANRYDLLCL
For B16, the enrichment score in assay [1] is inactive: 0.912; in assay [2], inactive: 0.839; in assay [3], inactive: 0.886; in assay [4] it was inactive: 0.695; in assay [5], inactive: 0.888; in assay [6], inactive: 0.819.

B17: FAM92A_Y226_R222Q (peptide)
chain: FQNSLYAPDYS
Consider B17, for which the enrichment score was inactive: 0.899 in assay [1]; inactive: 0.719 in assay [2]; inactive: 0.769 in assay [3]; inactive: 0.595 in assay [4]; inactive: 0.994 in assay [5]; inactive: 1.15 in assay [6].

B18: FAM111A_Y511_Y511H (peptide)
chain: AESPEHVHMYT
B18: the enrichment score in assay [1] was inactive: 0.748; in assay [2], inactive: 0.723; in assay [3] it was inactive: 0.699; in assay [4], inactive: 0.715; in assay [5], inactive: 0.85; in assay [6] it was inactive: 0.86.
